In paper PMC4336329 (PLoS ONE, 2015):
Hit rate of the full screen: of about 310,000 compounds, about 14,000 (4.5%) showed an effect of 50% or more. Effects have a minus sign here. The list shows a part of the results.

target: human ether-à-go-go-related gene (hERG) potassium channel (human, UniProt Q12809); test: primary screen, population patch clamp on CHO cells stably expressing hERG
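Further: peak tail current of the secondary pulse compared with the same well before compound.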

Chain of human ether-à-go-go-related gene (hERG) potassium channel (Q12809 whole entry, looked up): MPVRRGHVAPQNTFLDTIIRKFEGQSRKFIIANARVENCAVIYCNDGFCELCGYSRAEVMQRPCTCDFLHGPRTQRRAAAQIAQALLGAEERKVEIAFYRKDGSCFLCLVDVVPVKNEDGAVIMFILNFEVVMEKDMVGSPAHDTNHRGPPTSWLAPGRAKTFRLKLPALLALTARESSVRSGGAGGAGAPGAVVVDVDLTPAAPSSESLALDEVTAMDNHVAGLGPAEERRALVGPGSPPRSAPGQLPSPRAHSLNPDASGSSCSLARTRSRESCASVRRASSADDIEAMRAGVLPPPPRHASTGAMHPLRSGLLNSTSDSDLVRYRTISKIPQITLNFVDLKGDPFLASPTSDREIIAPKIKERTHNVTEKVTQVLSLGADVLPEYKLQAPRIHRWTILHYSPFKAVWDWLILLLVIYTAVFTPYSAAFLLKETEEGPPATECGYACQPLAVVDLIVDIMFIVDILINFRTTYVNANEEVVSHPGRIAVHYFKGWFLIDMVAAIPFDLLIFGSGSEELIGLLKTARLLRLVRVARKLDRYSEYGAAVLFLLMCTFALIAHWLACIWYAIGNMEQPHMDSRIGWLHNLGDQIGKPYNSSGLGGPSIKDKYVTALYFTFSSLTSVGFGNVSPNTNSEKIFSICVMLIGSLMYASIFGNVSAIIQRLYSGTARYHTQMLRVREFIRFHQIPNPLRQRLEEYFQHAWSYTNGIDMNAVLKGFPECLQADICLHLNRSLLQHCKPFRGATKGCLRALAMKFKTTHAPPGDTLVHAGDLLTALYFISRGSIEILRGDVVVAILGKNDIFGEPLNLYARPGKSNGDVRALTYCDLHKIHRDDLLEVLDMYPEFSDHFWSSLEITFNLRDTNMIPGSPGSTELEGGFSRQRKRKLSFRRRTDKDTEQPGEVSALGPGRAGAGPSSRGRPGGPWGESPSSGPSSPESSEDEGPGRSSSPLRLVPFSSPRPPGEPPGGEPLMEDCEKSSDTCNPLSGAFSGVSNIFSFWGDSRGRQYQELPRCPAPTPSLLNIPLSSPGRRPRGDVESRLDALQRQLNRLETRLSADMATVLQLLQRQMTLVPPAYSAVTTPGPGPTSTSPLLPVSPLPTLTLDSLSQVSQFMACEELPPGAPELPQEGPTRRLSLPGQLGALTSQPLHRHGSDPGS

Point of comparison: `Cc1ccc(C)c(OCc2cc(C(=O)N3CCN(c4cnccn4)CC3)no2)c1`, “hERG current change (%, negative = inhibition) at 10uM” value -81.7%. Against it:
- COc1ccc(C2CNC(=O)C2)cc1OC1CCCC1 (stereo not drawn) — higher, -3.67%
- C/C(Cn1cnc([N+](=O)[O-])n1)=N\NC(=O)c1ccc(Br)cc1 — higher, -28.1%
- COc1cccc(/C=N/NC(=O)CSc2nnc(C)n2-c2ccccc2)c1O — higher, -9.22%
- CSc1nc(O)c(C(c2ccc(O)cc2)c2c(O)nc(SC)[nH]c2=O)c(=O)[nH]1 — higher, 14.8%
- CCC(C)NCCCCOc1ccc(C)cc1[N+](=O)[O-].O=C(O)C(=O)O (stereo not drawn) — higher, -23%
- CCn1c(SCc2ccc(C#N)cc2)nnc1-c1ccc(S(=O)(=O)N2CCCCC2)cc1 — higher, -70.7%
- C[C@H](NC(=O)CCC1CCC(=O)N1)c1ccccc1 (stereo partly drawn) — higher, 12.3%
- CCN(CC)CCCN(C(=O)c1ccccc1C)c1nc(-c2ccc(OC)cc2)cs1 — higher, -55.5%
- CCN(CC)S(=O)(=O)c1cccc(-c2nnc(SCCOc3ccccc3C)o2)c1 — higher, -0.634%
- C=CCNC(=O)NC(=O)COC(=O)CNS(=O)(=O)c1ccc(F)c(F)c1F — higher, 20.4%
- O=C(O)CC/C(=N/NC(=O)CNC(=O)Cc1ccc(Cl)cc1)c1ccccc1 — higher, 11.2%
- O=C(Nc1ccc(C(=O)NCCCN2CCCCC2)cc1)C1=CSCCO1 — higher, 0.714%
- COc1ccc(NC(=O)CSc2nc(O)cc(=O)n2-c2ccccc2OC)cc1 — higher, 22.1%
- Cc1ccc(C(C)C)c(OCC(=O)Nn2c(=O)[nH]c3ccccc3c2=O)c1 — higher, -12.6%
- CC(C)Oc1cccc(C(=O)C2CCCN(C(=O)c3cncs3)C2)c1 (stereo not drawn) — higher, -23.9%
- CN(C(=O)CC1C(=O)NCCN1Cc1ccc2ccccc2c1)C1CCOCC1 (stereo not drawn) — higher, 1.19%
- COc1ccc(OCC(=O)O/N=C(\N)Cc2cccs2)cc1 — higher, 0.0915%
- Cc1ccccc1NC(=O)NC1CCCc2ccccc21 (stereo not drawn) — higher, 26.2%
- N=c1c(C(=O)NCC2CCCO2)cc2c(=O)n3ccccc3nc2n1Cc1ccco1 (stereo not drawn) — higher, -78.7%
- Cc1ccc2c(c1)cc(CN(Cc1ccco1)S(=O)(=O)c1ccccc1)c1nnnn12 — higher, -6.09%
- Clc1cccc(Cl)c1C[n+]1ccc2ccccc2c1.[Br-] — higher, 22.2%
- COc1ccc([C@H]2CC(=O)C=C(c3ccc(C)cc3)C2)cc1OC — higher, 12.7%
- CCCCn1c(SCC(=O)Nc2ccccc2C(F)(F)F)nc2ccsc2c1=O — higher, 2.61%
- Oc1ccc(/C=N/n2c(-c3ccccc3)n[nH]c2=S)cc1 — higher, 19.2%
- CCn1c(O)c(/C=N/NC(=O)c2ccccc2)c(=O)[nH]c1=S — higher, 13.5%
- NC(=O)Cn1nnc(-c2ccc(C(F)(F)F)cc2)n1 — higher, -4.44%
- CC(C)(C)OC(=O)N1CCC[C@H]1c1nnc(SCc2ccc(Cl)cc2)o1 — higher, -20.8%
- C=CCn1c(SCC(=O)Nc2cccc(C)c2)nnc1-c1cnccn1 — higher, -71.9%
- COCCNC(=O)c1onc(CSc2ccc(C(C)C)cc2)c1C(=O)O — higher, 5.52%
- COc1ccc(/C=N\NC(=O)c2cccc([N+](=O)[O-])c2)cc1Cn1cc([N+](=O)[O-])cn1 — higher, -35.8%
- CN(C)C(=O)N1CCN(C(=O)N2CCOCC2)CC1 — higher, 18.8%
- CN1C(=O)C(=Cc2ccccc2Oc2ccc(Cl)c(F)c2)C(=O)N(C)C1=O — higher, 5.34%
- Cc1cccc(CN2CCN(CCCc3ccccc3)CC2)c1.O=C(O)C(=O)O — higher, -75.4%
- O=C(Nc1nncs1)c1ccc(Br)c(S(=O)(=O)N2CCCC2)c1 — higher, 8.33%
- CC(=O)Cc1nsc(NC(=O)c2ccc(-c3ccc(F)cc3)o2)n1 — higher, -17.5%
- COc1cc(/C=C2\Oc3cc(O)ccc3C2=O)ccc1O — higher, 8.22%
- COc1ccc(OC)c(NC(=O)CCC(=O)Nc2nnc(C(C)C)s2)c1 — higher, 16%
- CC(NC(=O)c1ccc(CS(=O)(=O)c2cccc(C(F)(F)F)c2)o1)c1ccc2c(c1)OCCO2 (stereo not drawn) — higher, -7.57%
- CC(C)[C@H](NC(=O)c1ccccc1)C(=O)OCC(=O)c1ccc(S(=O)(=O)N2CCCCC2)cc1 — higher, -23.8%
- FC(F)(F)c1cc(N2CCOCC2)nc(-c2ccccc2)n1 — higher, -0.159%
- O=C(O)Cc1cn(Cc2ccc(F)cc2)c2ccccc12 — higher, 7.35%
- CC(C)(C)c1ccc(C(=O)NCCC(=O)NCc2ccco2)cc1 — higher, -36.1%
- Cc1ccc(NC(=O)NNC(=O)C2CC(c3cccs3)=NO2)cc1 (stereo not drawn) — higher, 24.8%
- CCCC(=O)Nc1ccc(Cl)c(NC(=O)c2ccc([N+](=O)[O-])cc2Cl)c1 — higher, -51.2%
- O=C(c1ccc([N+](=O)[O-])cc1)N1CCSC1c1cccc(Cl)c1 (stereo not drawn) — higher, -69.3%
- O=C(Nc1nc2ccc(SC(F)F)cc2s1)c1ccc2c(c1)S(=O)(=O)c1ccccc1C2=O — higher, -12.5%
- CCOC(=O)C1(Cc2ccccc2C)CCCN(C(=O)CCc2c(C)noc2C)C1 (stereo not drawn) — higher, -29.3%
- Cc1ccc(S(=O)(=O)N2CCN(C(=O)CN3C(=O)NC4(CCCC4)C3=O)CC2)c(C)c1 — higher, -1.95%
- CCOC(=O)c1ccc(-n2c(N)c(C(=O)NCc3ccco3)sc2=S)cc1 — higher, 5.44%
- O=[N+]([O-])c1cc(/C=N/OCc2c(Cl)cccc2Cl)ccc1N1CCOCC1 — higher, -3.25%
- COc1cc(OC)cc(-c2nnc(NC(=O)Cc3ccc(F)cc3)o2)c1 — higher, 23.8%
- Cc1ccc(S(=O)(=O)NC(=O)Nc2ccc(Cl)cn2)cc1 — higher, 0.493%
- CCOC(=O)c1[nH]c2ccccc2c1NC(=O)CCN1CCN(C(=O)OCC)CC1 — higher, -11.7%
